Test results from PubChem BioAssay AID1345083 (National Center for Advancing Translational Sciences (NCATS), 2018).
In all, about 94,000 compounds went through this assay and about 6,200 (6.6%) were called active. The shares of active, inactive and inconclusive entries below differ from those in the screen. Calls come from the whole dose curve; as a rule, active = well fitted inhibition curve with a large enough effect; inconclusive = small, poorly fitted or top-dose-only effect; inactive = flat fitted curve, though single readings scatter. Potencies beside an inconclusive call are fits to weak or partial responses and may not hold up.

Assay: Cytotoxic Profiling in HEK 293 Cell Line of Diverse Libraries Using Quantitative High-Throughput Screening; note: nearly all actives have a fitted effect of over 60% in size
Settings: HEK 293 viability, ATP luminescence (CellTiter-Glo), 48-72 h; series mostly up to 115 µM
How it was run: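 Pintool-delivered compounds were incubated with HEK 293 cells (250 cells/well) at 37 degree Celsius for 48 or 72 hr. ATP-dependent luminescence (CellTiter-Glo) then reported remaining viable cells.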
Potency is the fitted concentration of half-maximal effect; tags give direction and shape of the fitted curve.

Row | Compound | Potency
1 | Cc1noc([C@@H]2CC(F)(F)CN2C(=O)c2ccc(F)cn2)n1 | inactive
2 | O=C(CN1C(=O)NC(c2ccccc2Cl)C2=C1COC2=O)Nc1cc(F)ccc1Cl (stereo unspecified) | inconclusive: 22.4 µM [inhibitor, full curve]
3 | CC(CN)(CN1CCOCC1)c1ccccn1 (stereo unspecified) | inactive
4 | CCOC(=O)c1ccc(NC(=O)Cn2c(N3CCN(c4ccccc4)CC3)nc(C)cc2=O)cc1 | active: 39.8 µM
5 | CCN(Cc1cccc2nonc12)CC1CCCN(CCc2cccc(OC)c2)C1 (stereo unspecified) | inconclusive: 50.1 µM [inhibitor, partial curve, poor fit]
6 | COc1ccc(CN2CCC3(CC2)CC(c2cccnc2)=NO3)cc1 | inconclusive: 50.1 µM [inhibitor, partial curve, poor fit]
7 | Cc1cccc(OCCc2noc(C3CN(C(=O)c4cccnc4C)C3)n2)c1 | inconclusive: 79.4 µM [inhibitor, partial curve, poor fit]
8 | Cc1cc(=O)n(CC(=O)Nc2ccccc2)c(N2CCc3ccccc3C2)n1 | active: 31.6 µM
9 | C#CCN(Cc1nc(-c2ccccc2OCC)oc1C)C1CCCCC1 | inconclusive: 31.6 µM [inhibitor, full curve]
10 | O=C(CCc1ccccc1)N1CCc2c(nc(-c3ccc(F)cc3)[nH]c2=O)C1 | inactive
11 | COc1cccc(CN2C[C@@H](F)[C@@H](OCc3nc4ccccc4o3)C2)c1 | inconclusive: 112 µM [inhibitor, partial curve, poor fit]
12 | COc1ccc(CN2CCc3nc(N4CCN(C)CC4)[nH]c(=O)c3CC2)c(Cl)c1OC | inactive
13 | O=C(NCCc1ccc(Cl)cc1)c1ccc2nnc(CC3CC3)n2c1 | inconclusive: 56.2 µM [inhibitor, partial curve, poor fit]
14 | Cc1ccc(C(=O)N2CCCC(n3cc(-c4nc(C(C)C)no4)nn3)C2)cc1C (stereo unspecified) | inconclusive: 79.4 µM [inhibitor, partial curve, poor fit]
15 | COCCCn1c(C)cc(C(=O)NCC(=O)N2CCCCCNC(=O)CC2c2ccccc2)c1C (stereo unspecified) | inactive
16 | COc1ccc(CNC(=O)N2CCCC(Cc3noc(-c4ccncc4)n3)C2)cc1 (stereo unspecified) | inconclusive: 100 µM [inhibitor, partial curve, poor fit]
17 | Cc1cccc(C(=O)N2CCC(OC3CCN(C)CC3)CC2)c1 | inactive
18 | CCCNC(=O)N1CCC(c2nc(CCOc3cccc(C)c3)no2)C1 (stereo unspecified) | inconclusive: 63.1 µM [inhibitor, partial curve, poor fit]
19 | O=C(NC1CCCN(c2cc(-c3ccc(F)cc3)[nH]n2)C1)c1ccc2ncccc2c1 (stereo unspecified) | inconclusive: 56.2 µM [inhibitor, partial curve, poor fit]
20 | NC(=O)Cn1ccc2cc(OCC3CCN(c4cnccn4)CC3)cnc21 | inconclusive: 100 µM [inhibitor, partial curve]
21 | CN1c2cc(C(=O)Nc3ccc(Cl)c(F)c3)ccc2C(=O)N2CCCCC21 (stereo unspecified) | inconclusive: 22.4 µM [inhibitor, full curve, poor fit]
22 | CC(C)(C)CC(=O)N1CCN2C(=O)c3cc(-c4ccc5c(c4)OCO5)ccc3NC(=O)[C@H]2C1 | inconclusive: 56.2 µM [inhibitor, partial curve, poor fit]

Row | Compound | Potency
23 | CCN1c2cc(C(=O)NCc3ccc(C)c(C)c3)ccc2C(=O)N2CCCCCC21 (stereo unspecified) | inconclusive: 44.7 µM [inhibitor, partial curve, poor fit]
24 | O=C(NC1CCN(CCn2nc3n(c2=O)CCCC3)C1)c1cccc(Cl)c1 (stereo unspecified) | inactive
25 | COCC(=O)NC1CCC12CCN(Cc1cccc(F)c1)CC2 (stereo unspecified) | inactive
26 | COc1ccc(-c2noc(-c3cccn3CC(=O)NCc3ccc(F)cc3)n2)cc1F | inactive
27 | CCN1Cc2ccccc2N(C[C@@H](O)COCc2ccccc2)CCC1=O | inconclusive: 79.4 µM [inhibitor, partial curve, poor fit]
28 | COCC(=O)N(C1CCOCC1)C1CCN(C(=O)c2ccc(C)c(C)c2)CC1 | inconclusive: 89.1 µM [inhibitor, single point]
29 | Cc1ccccc1C(=O)N1CCc2nc(C3CC3)nc(-c3ccc(O)cc3)c2CC1 | inactive
30 | O=C1NCc2ccccc2CC12CCN(Cc1ccc(F)cc1O)CC2 | inconclusive: 79.4 µM [inhibitor, partial curve, poor fit]
31 | CC(C)C[C@@H]1N[C@H](C(=O)NCc2ccccc2Cl)Cc2c[nH]c3cccc1c23 | active: 28.2 µM
32 | O=C(NC1CCN(c2nccc(Nc3ccccc3Cl)n2)CC1)C1CC1 | inconclusive: 44.7 µM [inhibitor, partial curve, poor fit]
33 | COC(=O)c1ccc2c(c1)nc1n2[C@@H](CNCc2cccnc2)COC1 | inactive
34 | CN1Cc2ccc(NCc3ccccc3)nc2C(C)(C(=O)NC2CCC2)C1 (stereo unspecified) | inconclusive: 89.1 µM [inhibitor, partial curve]
35 | O=C(c1ccc(F)cc1)N1CCC2(CC1)CC(OCC1CC1)CCO2 (stereo unspecified) | inactive
36 | COc1ccc(C2(C(=O)NCc3ccccc3F)CCOCC2)cc1 | inactive
37 | O=C(c1ccc(Cl)cc1)N1CCN(c2cc(-c3ccc(Cl)cc3)[nH]n2)CC1 | active: 39.8 µM
38 | Cc1cnc(-c2ccccc2)n1CCN | inactive
39 | O=C(C1CCCN1C(=O)c1cccc(-c2cccnc2)c1)N1CCC(Cc2ccccc2)CC1 (stereo unspecified) | inconclusive: 20 µM [inhibitor, full curve, poor fit]
40 | Cc1cccc2c1nc1n2[C@@H](CNC(=O)c2ccc3c(c2)OCO3)COC1 | inconclusive: 100 µM [inhibitor, partial curve]
41 | COc1ccc(-c2onc(C)c2C(=O)NCCc2cccc(OC)c2)cc1 | inconclusive: 50.1 µM [inhibitor, partial curve, poor fit]
42 | CCn1nccc1C(=O)N1CCCN(S(C)(=O)=O)C(c2ccccc2)CC(=O)NCC1 (stereo unspecified) | inconclusive: 35.5 µM [inhibitor, single point]
43 | Cc1ccc(NC(=O)N2CCCC(Cn3cnc4cccnc43)C2)cc1C (stereo unspecified) | inconclusive: 39.8 µM [inhibitor, partial curve, poor fit]
44 | CCCc1cc(C(=O)N2CCc3c(nc(-c4cccnc4)[nH]c3=O)C2)n[nH]1 | inactive

Row | Compound | Potency
45 | Cc1ccc(NC(=O)N2C[C@H](c3nc(-c4ccncc4)no3)[C@@H](C)C2)cc1C | inconclusive: 56.2 µM [inhibitor, partial curve, poor fit]
46 | CCOc1cccc(CNC(=O)c2ccc(CN3C(=O)NC4(CCOCC4)C3=O)cc2)c1 | inconclusive: 39.8 µM [inhibitor, partial curve, poor fit]
47 | CN1C(=O)CC[C@]2(C(=O)NCc3cccc(F)c3)CCCC[C@@H]12 | inactive
48 | COCCC(=O)N1CCC2(CCCCO2)CC1 | inactive
49 | CS(=O)(=O)N1CCC(C2CCN(Cc3ccsc3)C2)CC1 (stereo unspecified) | inactive
50 | O=C1NC2(CN(Cc3ccc(F)cc3)C2)Oc2ccccc21 | inconclusive: 100 µM [inhibitor, partial curve, poor fit]
51 | COc1ccc(-c2cccc(C(=O)N3CCC(NC(=O)c4ccc5c(c4)OCO5)CC3)c2)nn1 | inactive
52 | Cc1ccccc1C1CCCN(C(=O)c2cnc(-c3cccnc3)nc2)C1 (stereo unspecified) | inconclusive: 44.7 µM [inhibitor, partial curve, poor fit]
53 | Cn1ncc2c(C(=O)Nc3ccccc3F)cc(-c3ccc(C(F)(F)F)cc3)nc21 | inconclusive: 50.1 µM [inhibitor, partial curve, poor fit]
54 | O=C(O)C[C@@H]1CCN(S(=O)(=O)c2ccccc2)C[C@@H]1CC1=NCCc2cc(F)ccc21 | inactive
55 | Cc1ccccc1-c1nc(C2CC(=O)N(C3CCCCC3)C2)no1 (stereo unspecified) | inconclusive: 44.7 µM [inhibitor, partial curve, poor fit]
56 | COc1ccc(CNC(=O)c2cc3c(N4CCSCC4)nc(C)cn3n2)c(OC)c1 | inconclusive: 56.2 µM [inhibitor, partial curve, poor fit]
57 | CS(=O)(=O)N1CCC(Oc2ccccc2-c2nc(C3CC3)no2)C1 (stereo unspecified) | inconclusive: 89.1 µM [inhibitor, single point]
58 | CN(Cc1ccccc1)Cc1cc(CC2(NCc3ccc(OC(F)(F)F)cc3)COC2)no1 | inconclusive: 50.1 µM [inhibitor, partial curve, poor fit]
59 | Cc1cc(C(F)(F)F)nn1CC(=O)N1C[C@@H](Oc2cccnc2)C[C@H]1C(=O)NC1CC1 | inactive
60 | COc1cccc(C(=O)N2CCC(c3nn(-c4ccccn4)c(=O)[nH]3)CC2)c1 | inactive
61 | COc1ccc(CNC(=O)C2CCN(c3nccc(Nc4ccc(C)cc4)n3)CC2)cc1 | inconclusive: 22.4 µM [inhibitor, full curve, poor fit]
62 | CN1CCOc2c(C(=O)NCCC(N)=O)cc(-c3ccccc3O)cc21 | inactive
63 | CN1CC[C@H]2CN(C(=O)c3cnn(C)c3)C[C@@]2(C(=O)O)C1 | inconclusive: 39.8 µM [inhibitor, single point]
64 | c1ccc(Nc2cc3c(cn2)CN(Cc2ncc[nH]2)CCN3)cc1 | inconclusive: 70.8 µM [inhibitor, partial curve, poor fit]
65 | O=C(CN1C(=O)C2(CCCCC2)C1c1ccccc1)NCCc1c[nH]c2ccccc12 (stereo unspecified) | inconclusive: 35.5 µM [inhibitor, partial curve, poor fit]
66 | COc1nc(C)c(C(=O)N2CCC(c3[nH]ncc3-c3ccccc3)CC2)s1 | inconclusive: 56.2 µM [inhibitor, partial curve, poor fit]
